{"source": "PubChem BioAssay AID504832", "about": "(National Center for Advancing Translational Sciences (NCATS), 2011)", "note": "Out of some 310,000 compounds screened, about 18,000 (5.8%) were called active. Inconclusive results, whose numbers are uncertain, are shown with a selection of clear calls. Calls follow the shape of the dose curve; as a rule, active = well fitted inhibition curve with a large enough effect; inconclusive = small, poorly fitted or top-dose-only effect, or another doubt; inactive = no such curve, though single readings can be large or run the other way. No potency is given beside an inconclusive call; the fits are too rough. Potency is read from the fitted curve at half-maximal effect; tags tell the direction and shape of the fitted curve.", "data": [{"assay": "Primary qHTS for delayed death inhibitors of the malarial parasite plastid, 48 hour incubation", "settings": "P. falciparum luciferase growth in erythrocytes; series mostly up to 28.7 µM", "from_the_text": "The goal of this screen is to discover new antimalarial compounds that act by inhibiting the development of the apicoplast in the malarial parasite Plasmodium falciparum. The biochemical processes that make this organelle essential for erythrocytic stage parasites are not well understood. However, antibiotics such as azithromycin and tetracycline, which target the apicoplast translational machinery, have a potent antimalarial effect.\nWe have developed a cell-based assay that measures parasite growth based on the expression of an integrated copy of a firefly luciferase reporter. To detect small molecules that cause this \"delayed death\" phenotype, erythrocytes infected with the luciferase-expressing parasites were incubated with compounds for either one or two generations, corresponding to 48 and 96 hours, respectively. Compounds that inhibit parasite growth in the second generation, but not the first, should be enriched in antimalarials that target the apicoplast. Growth inhibition is detected by a decrease in luciferase activity.\nAssay Provider: David Fidock and Eric Ekland, Columbia University\nKeywords: NIH Roadmap, MLPCN, MLI, MLSMR, qHTS, NCGC, qHTS, malaria, luciferase, viability\nFour microliters of culture medium (RPMI 1640 with 0.5% w/v Albumax (GIBCO), 24 mM sodium bicarbonate and 10 ug/mL gentamycin) were dispensed by a Multi-drop Combi into white solid 1536-well plates (Grenier) and 23 nL compound was added by a pin tool. Four microliters of infected erythrocytes (2% hematocrit, 0.1% parasitemia final concentration) in culture medium were dispensed and the plates incubated for 48 hours at 37 C in 5% CO2. Two microliters of luciferase detection reagent was added and luminescence was detected by a ViewLux (PerkinElmer) reader.", "values": [{"smiles": "CCOc1ccccc1Nc1nc(N)nc(CN(C)C2CCCCC2)n1", "Potency": "inconclusive [inhibitor, single point]"}, {"smiles": "CCOC(=O)C1=C(C)NC(C)=C(C(=O)OCC)C1C(=O)OCC(=O)N1CCc2ccccc21", "Potency": "active: 10.4 µM"}, {"smiles": "COc1ccc(NC(=O)CN(C)C(=O)/C=C/c2cn(Cc3ccccc3)nc2-c2cccnc2)cc1", "Potency": "inconclusive [inhibitor, single point]"}, {"smiles": "CC(=O)Nc1ccc(S(=O)(=O)N2CCC(c3nc4ccc(C)cc4[nH]3)CC2)cc1", "Potency": "inconclusive [inhibitor, partial curve]"}, {"smiles": "O=C(Nc1ccccc1N1CCCCC1)c1ccc([N+](=O)[O-])o1", "Potency": "active: 10.4 µM"}, {"smiles": "Cc1ccc(NC(=O)C/C(N)=N/OC(=O)c2ccccc2)cc1", "Potency": "inconclusive [inhibitor, single point]"}, {"smiles": "CN1CCN(C(=O)CN(C)S(=O)(=O)c2ccc3ccccc3c2)CC1", "Potency": "inconclusive [inhibitor, single point]"}, {"smiles": "S=C(NCc1cccnc1)Nc1cc(Cl)cc(Cl)c1", "Potency": "active: 2.94 µM"}, {"smiles": "CN(C)S(=O)(=O)c1ccc(NC(=O)/C=C/c2ccccc2Cl)cc1", "Potency": "inconclusive [inhibitor, single point]"}, {"smiles": "CSc1ccc(-c2sc(Nc3ccccc3)n[n+]2-c2ccccc2)cc1", "Potency": "inconclusive [inhibitor, full curve]"}, {"smiles": "CC(OC(=O)c1cccnc1Cl)C(=O)NCc1ccccc1", "note": "(stereo unspecified)", "Potency": "inactive"}, {"smiles": "COc1cc2c(cc1OC)C(c1ccc(-c3ccccc3Cl)o1)=NCC2", "Potency": "inconclusive [inhibitor, single point]"}, {"smiles": "OCC1(Cc2ccccc2)CCN(Cc2cnc(-c3cccc4ccccc34)nc2)CC1", "Potency": "inconclusive [inhibitor, single point]"}, {"smiles": "CC(C)CNC(=S)NC1CC2CCCC(C1)N2Cc1ccco1", "note": "(stereo unspecified)", "Potency": "inactive"}, {"smiles": "CCc1nc(SCC(=O)N2CCCCC2)c2c(=O)n(C)c(=O)n(C)c2n1", "Potency": "inconclusive [inhibitor, single point]"}, {"smiles": "O=C(CN(c1ccccc1F)S(=O)(=O)c1ccccc1)Nc1ccc2c(c1)OCCO2", "Potency": "inactive"}, {"smiles": "COc1cccc(-c2c(-c3cc(OC)cc(OC)c3)n(C)c3ccc(Br)cc23)c1", "Potency": "inconclusive [inhibitor, partial curve, poor fit]"}, {"smiles": "COCCNC(=O)CSc1nc2nn(-c3ccccc3)c(=O)c-2c2n1CCCCC2", "Potency": "inactive"}, {"smiles": "COCCCNC(=O)C(C)N1c2cccc3cccc(c23)S1(=O)=O", "note": "(stereo unspecified)", "Potency": "inactive"}, {"smiles": "CCc1ccccc1NC(=O)C1CCCN1S(=O)(=O)c1ccc(-c2ccc(=O)[nH]n2)s1", "note": "(stereo unspecified)", "Potency": "inconclusive [inhibitor, full curve]"}, {"smiles": "O=C(COc1cccc2cccnc12)Nc1cccc(S(=O)(=O)N2CCCC2)c1", "Potency": "active: 10.4 µM"}, {"smiles": "CC(=O)C(C)n1c(CN(C)Cc2ccccc2)nc2c1c(=O)n(C)c(=O)n2C", "note": "(stereo unspecified)", "Potency": "inactive"}, {"smiles": "CCOc1ccc(CSCCNC(=S)Nc2ccccc2)cc1", "Potency": "inconclusive [inhibitor, single point]"}, {"smiles": "Cc1ccc(-n2cc(CN3CCC(CO)(Cc4cccc(C(F)(F)F)c4)CC3)cn2)cc1", "Potency": "inconclusive [inhibitor, partial curve, poor fit]"}, {"smiles": "CCC1CCCCN1CCCNC(=O)CNC(=O)c1nn(-c2ccc(OC)cc2)c(=O)c2ccccc12", "note": "(stereo unspecified)", "Potency": "inconclusive [inhibitor, partial curve, poor fit]"}, {"smiles": "COc1ccc(-c2cn[nH]c2-c2ccc(OCC(=O)NN)cc2O)cc1", "Potency": "inconclusive [inhibitor, single point]"}, {"smiles": "Cc1cc(C)c(C#N)c(Sc2ccccc2N)n1", "Potency": "inconclusive [inhibitor, full curve, poor fit]"}, {"smiles": "Cc1cc(NCCCN2CCOCC2)n2nc(C)c(-c3ccc(F)cc3)c2n1", "Potency": "active: 7.38 µM"}, {"smiles": "O=C(OCC1OC(n2ncc(=O)[nH]c2=O)C(OC(=O)c2ccccc2)C1OC(=O)c1ccccc1)c1ccccc1", "note": "(stereo unspecified)", "Potency": "inconclusive [inhibitor, partial curve, poor fit]"}, {"smiles": "COc1ccccc1-n1cnnc1SC(C)C(=O)Nc1cccc([N+](=O)[O-])c1", "note": "(stereo unspecified)", "Potency": "inactive"}, {"smiles": "CCc1cc2c(NCCO)ncnc2s1", "Potency": "inactive"}, {"smiles": "Cc1ccc(-c2nc(CS(=O)CC(=O)NCCN(CC(C)C)CC(C)C)c(C)o2)cc1", "note": "(stereo unspecified)", "Potency": "inactive"}, {"smiles": "COc1ccc(Cn2nnnc2C(c2ccccc2)N2CCN(C3CCCC3)CC2)cc1", "note": "(stereo unspecified)", "Potency": "inconclusive [inhibitor, partial curve]"}, {"smiles": "c1ccc(-c2nnc(C3CC(c4cccnc4)=NO3)o2)cc1", "note": "(stereo unspecified)", "Potency": "inactive"}, {"smiles": "COc1ccc(NC(=O)C(=O)NCCN2CCN(C(=O)c3cccc(Br)c3)CC2)cc1", "Potency": "inconclusive [inhibitor, single point]"}, {"smiles": "CC1CCN(C(=O)c2[nH]cnc2C(=O)N[C@@H](Cc2ccccc2)C(=O)OC(C)(C)C)CC1", "Potency": "inactive"}, {"smiles": "CCCNC(=O)c1onc(CSc2ccc(Cl)cc2)c1C(=O)NC(C)C", "Potency": "active: 11.7 µM"}, {"smiles": "C=CCn1c(=N)n(CC(=O)c2ccc(Cl)cc2)c2ccccc21", "Potency": "inconclusive [inhibitor, single point]"}, {"smiles": "CCCCCC(=O)NNC(=O)c1ccc(-c2ccccc2)cc1", "Potency": "inactive"}, {"smiles": "CC1CCC(N2CCN(c3ccc([N+](=O)[O-])cc3)CC2)CC1", "note": "(stereo unspecified)", "Potency": "inactive"}, {"smiles": "COc1cccc(-n2c(SCc3cc(=O)oc4cc(O)c(O)cc34)nc3ccccc3c2=O)c1", "Potency": "inactive"}, {"smiles": "C=CCn1c(=NC(=O)c2ccccc2[N+](=O)[O-])sc2cc(S(C)(=O)=O)ccc21", "Potency": "inconclusive [inhibitor, partial curve]"}, {"smiles": "CC(=O)NC12CC3CC(C1)CC(C(=O)Nc1nc4ccc(S(C)(=O)=O)cc4s1)(C3)C2", "Potency": "inconclusive [inhibitor, single point]"}, {"smiles": "CSCCC(NC(=O)COc1ccccc1)C(=O)N(C)Cc1ccc(SC)cc1", "note": "(stereo unspecified)", "Potency": "inconclusive [inhibitor, single point]"}, {"smiles": "O=C(N/N=C/c1ccccc1F)C(=O)N1CCCCCC1", "Potency": "inactive"}, {"smiles": "COc1ccccc1N1CCN(C(CNC(=O)Oc2ccccc2)c2cccnc2)CC1", "note": "(stereo unspecified)", "Potency": "inconclusive [inhibitor, partial curve, poor fit]"}, {"smiles": "CCCc1c(NC(=O)Nc2ccc(F)cc2)cnn1-c1ccccc1", "Potency": "inconclusive [inhibitor, single point]"}, {"smiles": "CC(=O)OC(/C(O)=C(\\C#N)c1nc2ccccc2[nH]1)c1ccccc1", "note": "(stereo unspecified)", "Potency": "inconclusive [inhibitor, single point]"}, {"smiles": "CC(=O)Nc1ccc(Nc2ccc(S(=O)(=O)C(F)(F)F)cc2[N+](=O)[O-])cc1", "Potency": "active: 14.7 µM"}, {"smiles": "CCCCN(C(=O)CSc1nnc(-c2ccccc2)n1C)c1c(N)n(Cc2ccccc2)c(=O)[nH]c1=O", "Potency": "inactive"}, {"smiles": "COc1ccc(Cl)cc1NC(=S)NNC(=O)c1cccnc1", "Potency": "inconclusive [inhibitor, full curve, poor fit]"}, {"smiles": "Cc1ccc(CNCc2cc(Cl)ccc2O)cc1", "Potency": "active: 2.94 µM"}, {"smiles": "Cc1cc(C)c2nc(NNC(=O)c3ccc(S(=O)(=O)N4CCCC(C)C4)cc3)sc2c1", "note": "(stereo unspecified)", "Potency": "inconclusive [inhibitor, full curve]"}, {"smiles": "Cc1cccnc1NC(=O)CCCN1C(=O)c2ccccc2C1=O", "Potency": "inactive"}, {"smiles": "Cc1ccc(C(=O)NCCSc2ccc(Cl)cc2)cc1S(=O)(=O)Nc1ccccc1", "Potency": "inconclusive [inhibitor, single point]"}, {"smiles": "O=C(NCCCN1CCOCC1)c1ccc2c(c1)N(Cc1cccc(Cl)c1)C(=O)CS2", "Potency": "inconclusive [inhibitor, single point]"}, {"smiles": "Cc1cccc(Cn2cnc3c(N)c(C)c(C)cc32)c1", "Potency": "inconclusive [inhibitor, single point]"}, {"smiles": "CCN(Cc1nc2ccccc2c(=O)[nH]1)Cc1cc(=O)oc2cc(OC)ccc12", "Potency": "inconclusive [inhibitor, partial curve]"}, {"smiles": "CCN(CCCCOC(=O)c1ccc(OC)c(OC)c1)C(C)Cc1ccc(OC)cc1", "note": "(stereo unspecified)", "Potency": "inconclusive [inhibitor, partial curve]"}, {"smiles": "COc1ccc(C2CC(c3ccccc3)=NN2C(=O)COC(=O)c2cc(S(=O)(=O)N3CCOCC3)ccc2Cl)cc1", "note": "(stereo unspecified)", "Potency": "inconclusive [inhibitor, single point]"}, {"smiles": "COc1cccc(CNC(=O)C2CCCN(c3nc4ccccc4o3)C2)c1", "note": "(stereo unspecified)", "Potency": "inconclusive [inhibitor, full curve, poor fit]"}, {"smiles": "CCOc1ccc(OCCn2ccnc2)cc1", "Potency": "inactive"}, {"smiles": "COc1ccc(C)cc1N(C(=O)CNC(=O)c1ccco1)C(C(=O)NC1CCCC1)c1cccnc1", "note": "(stereo unspecified)", "Potency": "inactive"}, {"smiles": "CCOc1cccc(C(=O)Nc2ccccc2N2CCN(C(=O)C(C)C)CC2)c1", "Potency": "active: 9.28 µM"}, {"smiles": "Cc1ccccc1-c1nnc(SCC(=O)NC2CCCC2)n1C", "Potency": "inactive"}, {"smiles": "O=C(Nc1ccc(Cl)cc1F)C1CC(=O)N(Cc2ccco2)C1", "note": "(stereo unspecified)", "Potency": "inconclusive [inhibitor, single point]"}, {"smiles": "FC(F)(F)c1cc(CCN2C(=S)NC[C@@H]2c2ccccc2)cc(C(F)(F)F)c1", "Potency": "inactive"}, {"smiles": "CC12CCC(C(=O)Nc3ccccc3)(C/C1=N\\O)C2(C)C", "note": "(stereo unspecified)", "Potency": "inconclusive [inhibitor, partial curve, poor fit]"}, {"smiles": "O=C(NNC(=O)C1[C@H]2CCCC[C@@H]12)NC1CCCCC1", "note": "(stereo partly specified)", "Potency": "inactive"}, {"smiles": "N=c1c2c(n(Cc3ccc(F)cc3)c3c1CCC3)CCC2", "Potency": "active: 0.117 µM"}, {"smiles": "N/C(=N\\OC(=O)/C=C/c1ccccc1Cl)c1ccccn1", "Potency": "inactive"}]}]}
